# Experimental data from the supplement of paper PMC8728848.
# The list shows a part of the results.
# Assays:
# Test in all cases: glycan array binding signal (z-score within array); higher = stronger binding
# Settings in all cases: glycan notation: IUPAC condensed, linker removed
# [1] = biological target: Fuc(a1-2)Gal
# How it was run: (§1)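 Glycan array data were curated from 3228 arrays in the Consortium for Functional Glycomics database and kept only where the protein sequence was available. Glycan names were converted to IUPAC-condensed notation, and columns mapping to the same glycan were averaged. The binding signal is a within-array Z-score, averaged across arrays of the same protein sequence at different concentrations or buffers and across linkers. Negative Z-scores can be read as non-binding.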
# [2] = biological target: Fuc(a1-2)Gal(b1-3)GalNAc
# How it was run: as §1
# [3] = biological target: Fuc(a1-2)Gal(b1-3)GalNAc(a1-3)[Fuc(a1-2)]Gal(b1-4)Glc
# How it was run: as §1
# [4] = biological target: Fuc(a1-2)Gal(b1-3)GalNAc(a1-3)[Fuc(a1-2)]Gal(b1-4)GlcNAc
# How it was run: as §1
# [5] = biological target: Fuc(a1-2)Gal(b1-3)GalNAc(b1-3)Gal
# How it was run: as §1
# [6] = biological target: Fuc(a1-2)Gal(b1-3)GalNAc(b1-3)Gal(a1-4)Gal(b1-4)Glc
# How it was run: as §1
# [7] = biological target: Fuc(a1-2)Gal(b1-3)GalNAc(b1-4)[Neu5Ac(a2-3)]Gal(b1-4)Glc
# How it was run: as §1
# [8] = biological target: Fuc(a1-2)Gal(b1-3)GlcNAc
# How it was run: as §1
# [9] = biological target: Fuc(a1-2)Gal(b1-3)GlcNAc(b1-2)Man(a1-3)[Fuc(a1-2)Gal(b1-3)GlcNAc(b1-2)Man(a1-6)]Man(b1-4)GlcNAc(b1-4)GlcNAc
# How it was run: as §1
# [10] = biological target: Fuc(a1-2)Gal(b1-3)GlcNAc(b1-2)Man(a1-3)[Fuc(a1-2)Gal(b1-3)GlcNAc(b1-2)Man(a1-6)]Man(b1-4)GlcNAc(b1-4)[Fuc(a1-6)]GlcNAc
# How it was run: as §1
# [11] = biological target: Fuc(a1-2)Gal(b1-3)GlcNAc(b1-3)Gal(b1-4)Glc
# How it was run: as §1
# [12] = biological target: Fuc(a1-2)Gal(b1-3)GlcNAc(b1-3)GalNAc
# How it was run: as §1
# [13] = biological target: Fuc(a1-2)Gal(b1-3)GlcNAc(b1-3)[Fuc(a1-2)Gal(b1-3)GlcNAc(b1-6)]GalNAc
# How it was run: as §1
# [14] = biological target: Fuc(a1-2)Gal(b1-3)GlcNAc(b1-3)[Gal(b1-4)GlcNAc(b1-6)]Gal(b1-4)Glc
# How it was run: as §1
# [15] = biological target: Fuc(a1-2)Gal(b1-3)GlcNAc(b1-3)[Neu5Ac(a2-6)Gal(b1-4)GlcNAc(b1-6)]Gal(b1-4)Glc
# How it was run: as §1
# [16] = biological target: Fuc(a1-2)Gal(b1-3)GlcNAc6S
# How it was run: as §1
# [17] = biological target: Fuc(a1-2)Gal(b1-3)[Fuc(a1-4)]GlcNAc
# How it was run: as §1
# [18] = biological target: Fuc(a1-2)Gal(b1-3)[Fuc(a1-4)]GlcNAc(b1-2)Man(a1-3)[Fuc(a1-2)Gal(b1-3)[Fuc(a1-4)]GlcNAc(b1-2)Man(a1-3)]Man(b1-4)GlcNAc(b1-4)GlcNAc
# How it was run: as §1
# [19] = biological target: Fuc(a1-2)Gal(b1-3)[Fuc(a1-4)]GlcNAc(b1-2)Man(a1-3)[Fuc(a1-2)Gal(b1-3)[Fuc(a1-4)]GlcNAc(b1-2)Man(a1-6)]Man(b1-4)GlcNAc(b1-4)[Fuc(a1-6)]GlcNAc(b1-4)[Fuc(a1-6)]GlcNAc
# How it was run: as §1
# [20] = biological target: Fuc(a1-2)Gal(b1-3)[Fuc(a1-4)]GlcNAc(b1-3)[Fuc(a1-3)[Gal(b1-4)]GlcNAc(b1-6)]Gal(b1-4)Glc
# How it was run: as §1
# [21] = biological target: Fuc(a1-2)Gal(b1-3)[Fuc(a1-4)]GlcNAc(b1-3)[Gal(b1-4)GlcNAc(b1-6)]Gal(b1-4)Glc
# How it was run: as §1
# [22] = biological target: Fuc(a1-2)Gal(b1-4)Glc
# How it was run: as §1
# [23] = biological target: Fuc(a1-2)Gal(b1-4)Glc6S
# How it was run: as §1
# [24] = biological target: Fuc(a1-2)Gal(b1-4)GlcNAc
# How it was run: as §1
# [25] = biological target: Fuc(a1-2)Gal(b1-4)GlcNAc(b1-2)Man
# How it was run: as §1
# [26] = biological target: Fuc(a1-2)Gal(b1-4)GlcNAc(b1-2)Man(a1-3)[Fuc(a1-2)Gal(b1-4)GlcNAc(b1-2)Man(a1-6)]Man(b1-4)GlcNAc(b1-4)GlcNAc
# How it was run: as §1
# [27] = biological target: Fuc(a1-2)Gal(b1-4)GlcNAc(b1-2)Man(a1-3)[Fuc(a1-2)Gal(b1-4)GlcNAc(b1-2)Man(a1-6)]Man(b1-4)GlcNAc(b1-4)[Fuc(a1-6)]GlcNAc
# How it was run: as §1
# [28] = biological target: Fuc(a1-2)Gal(b1-4)GlcNAc(b1-2)[Fuc(a1-2)Gal(b1-4)GlcNAc(b1-4)]Man(a1-3)[Fuc(a1-2)Gal(b1-4)GlcNAc(b1-2)Man(a1-6)]Man(b1-4)GlcNAc(b1-4)GlcNAc
# How it was run: as §1
# [29] = biological target: Fuc(a1-2)Gal(b1-4)GlcNAc(b1-3)Gal(b1-4)GlcNAc
# How it was run: as §1
# [30] = biological target: Fuc(a1-2)Gal(b1-4)GlcNAc(b1-3)Gal(b1-4)GlcNAc(b1-2)Man(a1-3)[Fuc(a1-2)Gal(b1-4)GlcNAc(b1-3)Gal(b1-4)GlcNAc(b1-2)Man(a1-6)]Man(b1-4)GlcNAc(b1-4)GlcNAc
# How it was run: as §1
binder,measurement,setting,value
PX14343H-pdi-506-26-506 (Parabacteroides distasonis) (protein) QPTGTMTTDSKLTSKESALALTNSAYLKNTVFNKMTPGWGCNTILLLEYMTGKATSENSQSNYKDFQDLLVSDRSLYIEDWWQDCYAGIANCNLALQKLGEFENLDASLVNGYMAEVKFMRALYYFYLVRIFGDVPKITTVQSELGELQVSRAPVKEIYDEIIIPDLLEAEQSDLAFSDHTGRVSMGAVKALLADVYLTYAGYPLQGGKSYYAESAKRSLEVIKSNEYTLFTDYESLRLPSQNNKGEFIYQVQFSLNKRHNESVRIFLPSRSGISAYDLEYGSLIPTKEFVESFEKGDKRTEEKQYFFTNYKGHPSKFSPGAAELEFMDLNGYYIYKFFDQVAVDNTAKSDLNWSVYRYTDVLLMYAEAQVNADGTPNQQSIDIVNQIRGRAGLAPFKQTNASAFLEEVWDQRYFDLCYENKMWFDMLRTRKIRDDKSGEYVDFIGYKTNWGKVYTETQLLFPIPLSERQANPNLTQNQGY,glycan array binding signal (z-score),[1],-0.393
same,glycan array binding signal (z-score),[2],-0.509
same,glycan array binding signal (z-score),[3],-0.41
same,glycan array binding signal (z-score),[4],-0.451
same,glycan array binding signal (z-score),[5],-0.373
same,glycan array binding signal (z-score),[6],-0.355
same,glycan array binding signal (z-score),[7],-0.216
same,glycan array binding signal (z-score),[8],-0.171
same,glycan array binding signal (z-score),[9],1.18
same,glycan array binding signal (z-score),[10],-0.417
same,glycan array binding signal (z-score),[11],-0.38
same,glycan array binding signal (z-score),[12],-0.507
same,glycan array binding signal (z-score),[13],-0.337
same,glycan array binding signal (z-score),[14],-0.26
same,glycan array binding signal (z-score),[15],-0.402
same,glycan array binding signal (z-score),[16],-0.364
same,glycan array binding signal (z-score),[17],-0.374
same,glycan array binding signal (z-score),[18],-0.174
same,glycan array binding signal (z-score),[19],-0.358
same,glycan array binding signal (z-score),[20],-0.346
same,glycan array binding signal (z-score),[21],-0.231
same,glycan array binding signal (z-score),[22],-0.4
same,glycan array binding signal (z-score),[23],-0.531
same,glycan array binding signal (z-score),[24],-0.482
same,glycan array binding signal (z-score),[25],-0.325
same,glycan array binding signal (z-score),[26],3.11
same,glycan array binding signal (z-score),[27],-0.315
same,glycan array binding signal (z-score),[28],-0.33
same,glycan array binding signal (z-score),[29],-0.509
same,glycan array binding signal (z-score),[30],-0.257
